{"source": "the supplement of paper PMC8728848", "binders": {"B1": {"name": "B1567 (Bifidobacterium sp) (protein)", "chain": "MKFTTAKKAVALTGAVAMLVSVAACGSDSGKSSQPAQDSDVKEITVWAWEPSLTQVAKDFEKETGIKVDLKNVGTNTKEYTQLDNAIEAGSGAPDVAQVEYYAVPQYAIKGNLLDITDKTSGYKDFYTPGPWASVQFAGKVYGLPMDSGPMAFFYNKEVFDKAGVDAEQIKTWDQYYDAAKKIHALGDNYYITSDTGDAGFFDSMTWLAGAKPFQTSSDGSEVTVNLTEDKGVKTFTDFWQKLLDEGLLDTKTAGWSEDWFKGMVDGTIASLFTGAWMPANLANSAADGAGKWRVTQMPTADGSTTNSENGGSSLAVLASTKKADAAYQFIEYANHGAGVATRVAGGAFPADKASLEKDSFKNATTVKNADGQDVDYFGGQKYNEVLAQAAENVSSGYQFLPFEVKARTIFGDYFGKSYTGDQKLSDGVAAWQKALQDYGKDQGFTVK"}}, "assay_in_all_cases": "glycan array binding signal (z-score within array); higher = stronger binding", "conditions_in_all_cases": "glycan notation: IUPAC condensed, linker removed", "key": {"[1]": {"target": "GlcNAc(b1-3)Gal(b1-4)GlcNAc(b1-3)Gal(b1-4)GlcNAc(b1-3)GalNAc", "method_in_brief": "(§1)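 Negative Z-scores can be read as non-binding. The Z-score is calculated within each array and then averaged across arrays of one protein sequence at different concentrations or buffers and across linkers. Arrays, 3228 in all, were curated from the Consortium for Functional Glycomics database and kept only where the protein sequence was available.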"}, "[2]": {"target": "GlcNAc(b1-3)Gal(b1-4)GlcNAc(b1-3)GalNAc", "method_in_brief": "as §1"}, "[3]": {"target": "GlcNAc(b1-3)Gal(b1-4)GlcNAc(b1-3)[GlcNAc(b1-3)Gal(b1-4)GlcNAc(b1-3)]GalNAc", "method_in_brief": "as §1"}, "[4]": {"target": "GlcNAc(b1-3)Gal(b1-4)GlcNAc(b1-6)[Gal(b1-3)]GalNAc", "method_in_brief": "as §1"}, "[5]": {"target": "GlcNAc(b1-3)Gal(b1-4)GlcNAc(b1-6)[GlcNAc(b1-3)Gal(b1-3)]GalNAc", "method_in_brief": "as §1"}, "[6]": {"target": "GlcNAc(b1-3)Gal(b1-4)GlcNAc(b1-6)[GlcNAc(b1-3)]Gal(b1-4)GlcNAc", "method_in_brief": "as §1"}, "[7]": {"target": "GlcNAc(b1-3)GalNAc", "method_in_brief": "as §1"}, "[8]": {"target": "GlcNAc(b1-3)Man", "method_in_brief": "as §1"}, "[9]": {"target": "GlcNAc(b1-3)[GlcNAc(b1-4)][GlcNAc(b1-6)]GlcNAc", "method_in_brief": "as §1"}, "[10]": {"target": "GlcNAc(b1-3)[GlcNAc(b1-6)]Gal(b1-4)GlcNAc", "method_in_brief": "as §1"}, "[11]": {"target": "GlcNAc(b1-3)[GlcNAc(b1-6)]GalNAc", "method_in_brief": "as §1"}, "[12]": {"target": "GlcNAc(b1-4)Gal(b1-4)GlcNAc", "method_in_brief": "as §1"}, "[13]": {"target": "GlcNAc(b1-4)GlcNAc", "method_in_brief": "as §1"}, "[14]": {"target": "GlcNAc(b1-4)GlcNAc(b1-4)GlcNAc", "method_in_brief": "as §1"}, "[15]": {"target": "GlcNAc(b1-4)GlcNAc(b1-4)GlcNAc(b1-4)GlcNAc(b1-4)GlcNAc", "method_in_brief": "as §1"}, "[16]": {"target": "GlcNAc(b1-4)GlcNAc(b1-4)GlcNAc(b1-4)GlcNAc(b1-4)GlcNAc(b1-4)GlcNAc", "method_in_brief": "as §1"}, "[17]": {"target": "GlcNAc(b1-4)[GlcNAc(b1-6)]GalNAc", "method_in_brief": "as §1"}, "[18]": {"target": "GlcNAc(b1-6)Gal(b1-4)GlcNAc", "method_in_brief": "as §1"}, "[19]": {"target": "GlcNAc(b1-6)GalNAc", "method_in_brief": "as §1"}, "[20]": {"target": "GlcNAc6S(b1-3)Gal(b1-4)GlcNAc", "method_in_brief": "as §1"}, "[21]": {"target": "Kdn(a2-3)Gal(b1-3)GalNAc", "method_in_brief": "as §1"}, "[22]": {"target": "Kdn(a2-3)Gal(b1-3)GlcNAc", "method_in_brief": "as §1"}, "[23]": {"target": "Kdn(a2-3)Gal(b1-4)Glc", "method_in_brief": "as §1"}, "[24]": {"target": "Kdn(a2-3)Gal(b1-4)GlcNAc", "method_in_brief": "as §1"}, "[25]": {"target": "Kdn(a2-3)Gal(b1-4)[Fuc(a1-3)]GlcNAc", "method_in_brief": "as §1"}, "[26]": {"target": "Kdn(a2-6)Gal(b1-4)GlcNAc", "method_in_brief": "as §1"}, "[27]": {"target": "Man(a1-2)Man(a1-2)Man(a1-3)Man", "method_in_brief": "as §1"}, "[28]": {"target": "Man(a1-2)Man(a1-2)Man(a1-6)[Man(a1-3)]Man", "method_in_brief": "as §1"}, "[29]": {"target": "Man(a1-2)Man(a1-3)Man", "method_in_brief": "as §1"}, "[30]": {"target": "Man(a1-2)Man(a1-3)[Man(a1-2)Man(a1-6)]Man", "method_in_brief": "as §1"}, "[31]": {"target": "Man(a1-2)Man(a1-3)[Man(a1-2)Man(a1-6)]Man(a1-6)[Man(a1-2)Man(a1-2)Man(a1-3)]Man", "method_in_brief": "as §1"}, "[32]": {"target": "Man(a1-2)Man(a1-3)[Man(a1-2)Man(a1-6)]Man(a1-6)[Man(a1-2)Man(a1-2)Man(a1-3)]Man(b1-4)GlcNAc(b1-4)GlcNAc", "method_in_brief": "as §1"}, "[33]": {"target": "Man(a1-2)Man(a1-3)[Man(a1-6)]Man(a1-6)[Man(a1-2)Man(a1-3)]Man(b1-4)GlcNAc(b1-4)GlcNAc", "method_in_brief": "as §1"}, "[34]": {"target": "Man(a1-2)Man(a1-6)[Man(a1-3)]Man(a1-6)[Man(a1-2)Man(a1-2)Man(a1-3)]Man", "method_in_brief": "as §1"}, "[35]": {"target": "Man(a1-2)Man(a1-6)[Man(a1-3)]Man(a1-6)[Man(a1-2)Man(a1-2)Man(a1-3)]Man(b1-4)GlcNAc(b1-4)GlcNAc", "method_in_brief": "as §1"}, "[36]": {"target": "Man(a1-3)[Man(a1-6)]Man", "method_in_brief": "as §1"}, "[37]": {"target": "Man(a1-3)[Man(a1-6)]Man(a1-6)[Man(a1-2)Man(a1-3)]Man(b1-4)GlcNAc(b1-4)GlcNAc", "method_in_brief": "as §1"}}, "note": "This is one part of the list.", "data": [{"binder": "B1", "values": [{"measurement": "glycan array binding signal (z-score)", "setting": "[1]", "value": -0.12}, {"measurement": "glycan array binding signal (z-score)", "setting": "[2]", "value": -0.008}, {"measurement": "glycan array binding signal (z-score)", "setting": "[3]", "value": -0.052}, {"measurement": "glycan array binding signal (z-score)", "setting": "[4]", "value": -0.11}, {"measurement": "glycan array binding signal (z-score)", "setting": "[5]", "value": -0.096}, {"measurement": "glycan array binding signal (z-score)", "setting": "[6]", "value": -0.069}, {"measurement": "glycan array binding signal (z-score)", "setting": "[7]", "value": -0.095}, {"measurement": "glycan array binding signal (z-score)", "setting": "[8]", "value": -0.055}, {"measurement": "glycan array binding signal (z-score)", "setting": "[9]", "value": -0.063}, {"measurement": "glycan array binding signal (z-score)", "setting": "[10]", "value": -0.114}, {"measurement": "glycan array binding signal (z-score)", "setting": "[11]", "value": -0.098}, {"measurement": "glycan array binding signal (z-score)", "setting": "[12]", "value": -0.09}, {"measurement": "glycan array binding signal (z-score)", "setting": "[13]", "value": -0.116}, {"measurement": "glycan array binding signal (z-score)", "setting": "[14]", "value": -0.184}, {"measurement": "glycan array binding signal (z-score)", "setting": "[15]", "value": -0.022}, {"measurement": "glycan array binding signal (z-score)", "setting": "[16]", "value": -0.109}, {"measurement": "glycan array binding signal (z-score)", "setting": "[17]", "value": -0.173}, {"measurement": "glycan array binding signal (z-score)", "setting": "[18]", "value": -0.07}, {"measurement": "glycan array binding signal (z-score)", "setting": "[19]", "value": -0.092}, {"measurement": "glycan array binding signal (z-score)", "setting": "[20]", "value": -0.139}, {"measurement": "glycan array binding signal (z-score)", "setting": "[21]", "value": -0.054}, {"measurement": "glycan array binding signal (z-score)", "setting": "[22]", "value": -0.128}, {"measurement": "glycan array binding signal (z-score)", "setting": "[23]", "value": -0.115}, {"measurement": "glycan array binding signal (z-score)", "setting": "[24]", "value": -0.15}, {"measurement": "glycan array binding signal (z-score)", "setting": "[25]", "value": -0.018}, {"measurement": "glycan array binding signal (z-score)", "setting": "[26]", "value": -0.134}, {"measurement": "glycan array binding signal (z-score)", "setting": "[27]", "value": -0.101}, {"measurement": "glycan array binding signal (z-score)", "setting": "[28]", "value": -0.027}, {"measurement": "glycan array binding signal (z-score)", "setting": "[29]", "value": -0.155}, {"measurement": "glycan array binding signal (z-score)", "setting": "[30]", "value": -0.137}, {"measurement": "glycan array binding signal (z-score)", "setting": "[31]", "value": -0.086}, {"measurement": "glycan array binding signal (z-score)", "setting": "[32]", "value": -0.139}, {"measurement": "glycan array binding signal (z-score)", "setting": "[33]", "value": 0.007}, {"measurement": "glycan array binding signal (z-score)", "setting": "[34]", "value": -0.045}, {"measurement": "glycan array binding signal (z-score)", "setting": "[35]", "value": -0.127}, {"measurement": "glycan array binding signal (z-score)", "setting": "[36]", "value": -0.05}, {"measurement": "glycan array binding signal (z-score)", "setting": "[37]", "value": -0.126}]}]}
